From the supplement of paper PMC3334620
Whole data set: some 33,000 sequences, median “E-score (-0.5 to 0.5)” near -0.016, cut for the highest 2% near 0.31. The list shows a part of the results.

The sequences below were run against Cst6 (UniProt P40535) (assay: PBM E-score (8-mer binding enrichment) (E-score (-0.5 to 0.5)); higher = stronger / more preferred TF binding; most listed sequences are background and not binding sites). Conditions: protein concentration: 200 nM; construct: GST-DNA-binding domain.
Procedure, shortened: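 Bound GST-tagged yeast transcription factors, applied at about 100-200 nM to double-stranded universal all-10-mer Agilent arrays, were detected with fluorescent anti-GST. Scans were normalised with masliner. A modified Wilcoxon-Mann-Whitney statistic, the E-score, was assigned to each ungapped eight-base word pooled with its reverse complement by the Universal PBM Analysis Suite.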

Sequence | PBM E-score
GAATACGC | 0.0327
ACCGTCAA | 0.159
AGGCCCAC | -0.378
AAGCCGAC | -0.231
AACTTGGA | -0.014
ATTCCACG | -0.0333
TGACACCA | 0.207
CGGAAGCC | -0.215
GCAACATA | 0.00166
AGTGGCGA | 0.0569
GTGTCTGA | 0.0503
GCGAAGAA | 0.104
GTGTCCTA | -0.0992
AGTAGTGC | -0.186
GCCTAAAC | -0.122
ATGGCCGA | -0.115
GGCGGCAA | 0.137
TCGGGTAA | -0.0306
CGGCCTGC | -0.254
AGCGCGTG | -0.0464
GCGGAGAC | -0.0522
CTTCTAAA | 0.115
TAGACTGA | 0.0599
CGATCCAG | 0.0183
GTTCGGCA | 0.0638

Sequence | PBM E-score
ATCAGTTA | 0.258
CTTTTCTA | -0.0954
ACGATGAT | 0.206
AGGTGGAT | -0.119
GACTAAGA | -0.0891
AAGACGTA | 0.215
AAGCGGAT | -0.0562
ATGAGGTA | 0.312
TCCGCACA | 0.0266
ATAAAAAA | 0.234
CGTGGCGA | -0.0853
GGGTACTA | -0.00885
AACGTTAG | 0.0614
CACTCCTA | -0.0931
CTAAATTC | 0.221
CGGTTCAC | -0.299
CTAAGAGC | -0.208
AACCTCGA | -0.0253
GTGTTCTA | 0.103
ACGGCGTA | 0.358
ATTTGAGA | 0.139
AAGGAACC | -0.0799
AAAAGTAT | 0.248
AATCAACC | -0.193
AGAAGTGC | -0.187

Sequence | PBM E-score
AGCAAGCT | -0.257
AAAATACC | 0.0958
AAGACCCC | -0.272
TAATGGAA | 0.221
CGAATCAC | 0.0397
ACTCACCA | 0.043
ACGCTGAG | -0.00878
AACATATC | 0.134
CGGGAGAC | -0.262
GCTCGGGA | -0.193
AGGAGCTG | -0.256
AAGGGCGA | -0.152
TCCAGGGA | -0.117
CACACTCC | -0.117
ACAGGGCG | 0.0932
ATCCCGTG | 0.0123
ACTCAGGC | -0.0327
CCTGTCAA | -0.0105
AGCACCCT | -0.296
GTTATGTA | 0.165
ATCCATTG | 0.0328
GGCATGGA | 0.0466
AGCGCCAG | -0.202
CTGAATGC | -0.0424
CCCGTTTC | -0.266

Sequence | PBM E-score
CAGGATAG | 0.0523
AGGTGCCC | -0.233
ATGAACAT | 0.132
CAAACTAG | -0.195
ATCTTGGC | -0.185
GAACAGTC | -0.312
AGAAAGAG | -0.0467
AAGTAATC | 0.179
CCATGCCA | -0.0478
AGTGAAAG | 0.0582
CAAGGTCA | -0.147
ATTCTCGC | -0.17
ATGTGTGA | 0.0664
ATCTTTCC | 0.023
GATACGTA | 0.332
AAGGGCGT | -0.0269
AGGTAACG | -0.161
CATTTTCG | 0.176
CACTCTCG | 0.0532
ACAGGCTA | -0.22
TGATTAAA | 0.242
ACCGAGAT | -0.0371
ATTTTAAG | 0.203
CGGTTACA | 0.171
CGTGATAG | 0.0126

Sequence | PBM E-score
CATTACCC | -0.01
CATCGCCC | -0.0867
CTAAACTA | -0.0665
CGCCCAAG | -0.248
TCGAATAA | 0.0566
CCAGACAC | -0.193
CTCGGTCC | -0.203
CGGCTGTA | 0.0661
CTCCTGAA | 0.0124
AACCGAAG | -0.046
AGACGTAA | 0.371
AAGATACC | 0.0362
GCCCTGCA | -0.0503
CCTGCGAG | -0.0845
GCTAGACA | -0.0573
GGATAGAA | 0.183
ACTAGGAT | 0.105
CCCGTACC | -0.0481
GCACCCAC | 0.0778
AATCTGGG | -0.1
ATAAGCGG | 0.154
AAGGGGAA | -0.169
AGCTAGGA | -0.172
AACAGACT | -0.00426
CAGTGGTA | -0.0795

Sequence | PBM E-score
CCCCGAAC | -0.288
AAGACAGT | -0.113
AGTAGAAG | 0.0604
ACAGGGGC | -0.213
AAACTCGT | 0.0664
CCCTTCAA | -0.00494
ACTCGAGC | -0.0936
TAGGAGAA | -0.185
AAATCGGT | -0.0511
AGTATTTC | 0.197
GATTCTCC | -0.194
TATGTGGA | 0.0371
ATGACCGG | -0.019
CCCCTGAC | -0.0251
AGCAGGAC | -0.13
GTGGATTA | 0.02
CACTCAGA | 0.0777
AAACTGAG | -0.0611
AACGATCA | -0.0508
CAGTTAGC | -0.118
GTGGCCGA | -0.201
CTGCTAAC | -0.0213
ACCACACC | -0.185
AAGGAGGT | -0.294
GGGACCCC | -0.36

Sequence | PBM E-score
AGCCGCTG | -0.0413
ACCCGTGA | 0.109
CACCTTCA | -0.171
CAAGTACC | -0.25
ACGGAGTG | 0.0572
AGCGCCAT | -0.16
AGATCCCT | -0.214
AACTCTAG | -0.05
AGGTCGGC | -0.225
CTCCTCGC | -0.24
AGCCGCTC | 0.0741
ATATGCGG | 0.0776
TGCGAACA | 0.0636
GGGGAAGA | -0.114
ATCGCTAG | 0.00259
AAAATGAG | 0.157
CACAGGGG | -0.278
CACTGTGC | -0.0708
AATGACGG | 0.35
CCTGTCGA | -0.0378
CTGGTAAC | 0.0441
ACCATCCC | -0.021
